Results: PubChem BioAssay AID504339 (National Center for Advancing Translational Sciences (NCATS), 2011)
Hit rate of the full screen: of about 390,000 compounds, about 17,000 (4.4%) were called active. Inconclusive results, whose numbers are uncertain, are shown with a selection of clear calls. Calls follow the shape of the dose curve; as a rule, active = well fitted inhibition curve with a large enough effect; inconclusive = small, poorly fitted or top-dose-only effect; inactive = no such curve, though single readings can be large or run the other way. Potencies of inconclusive entries are doubtful fits and often do not repeat.

molecular target: Lysine-specific demethylase 4A (Homo sapiens) (UniProt O75164); experiment: qHTS Assay for Inhibitors of JMJD2A-Tudor Domain; settings: AlphaScreen JMJD2A-Tudor / H3K4me3 peptide binding; series mostly up to 114 µM; also: nearly all actives have a fitted effect of over 50% in size
Potency is read from the fitted curve at half-maximal effect; tags tell the direction and shape of the fitted curve.

Chain of UniProt O75164 (O75164 whole entry, looked up, the tested form may be a part): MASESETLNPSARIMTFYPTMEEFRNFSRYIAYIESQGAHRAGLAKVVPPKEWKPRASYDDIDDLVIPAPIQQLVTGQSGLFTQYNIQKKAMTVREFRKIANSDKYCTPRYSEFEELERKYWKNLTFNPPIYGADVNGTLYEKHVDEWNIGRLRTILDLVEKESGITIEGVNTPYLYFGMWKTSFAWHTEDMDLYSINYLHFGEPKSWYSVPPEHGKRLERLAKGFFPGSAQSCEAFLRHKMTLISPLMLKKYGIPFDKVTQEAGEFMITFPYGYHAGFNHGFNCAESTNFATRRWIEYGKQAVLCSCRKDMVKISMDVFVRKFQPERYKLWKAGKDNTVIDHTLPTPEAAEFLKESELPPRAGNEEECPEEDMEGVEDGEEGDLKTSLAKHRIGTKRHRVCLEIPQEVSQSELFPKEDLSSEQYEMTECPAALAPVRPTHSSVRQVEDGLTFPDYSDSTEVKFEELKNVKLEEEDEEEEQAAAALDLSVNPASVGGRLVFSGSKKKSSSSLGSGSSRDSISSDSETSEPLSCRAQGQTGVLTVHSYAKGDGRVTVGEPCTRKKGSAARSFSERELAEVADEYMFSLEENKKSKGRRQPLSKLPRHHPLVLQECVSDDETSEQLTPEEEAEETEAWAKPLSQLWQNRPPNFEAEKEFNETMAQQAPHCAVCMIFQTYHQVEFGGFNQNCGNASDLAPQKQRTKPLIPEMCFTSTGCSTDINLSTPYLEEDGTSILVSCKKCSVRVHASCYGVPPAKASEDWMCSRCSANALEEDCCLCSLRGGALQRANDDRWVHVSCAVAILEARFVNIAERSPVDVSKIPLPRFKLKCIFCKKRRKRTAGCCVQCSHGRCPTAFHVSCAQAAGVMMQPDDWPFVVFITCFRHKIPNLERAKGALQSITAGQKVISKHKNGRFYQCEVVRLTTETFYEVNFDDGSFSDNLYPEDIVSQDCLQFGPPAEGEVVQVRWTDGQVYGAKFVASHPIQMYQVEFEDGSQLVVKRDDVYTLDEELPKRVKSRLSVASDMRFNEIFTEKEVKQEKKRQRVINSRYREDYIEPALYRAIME

SMILES	Potency
COC(=O)c1cc(=O)n(Cc2cccs2)c(=Nc2ccccc2)s1	inconclusive: 22.4 µM [inhibitor, partial curve]
CCOc1ccc(CCNC(=O)c2cn(CC)c3ccc(S(=O)(=O)N4CCc5ccccc5C4)cc3c2=O)cc1OCC	inconclusive: 5.62 µM [inhibitor, full curve]
CCCn1c(NCc2ccc(N(C)C)cc2)nc2ccccc21	inconclusive: 56.2 µM [inhibitor, partial curve]
CCn1c2ccccc2c2cc(CN3CCN(Cc4ccccc4F)CC3)ccc21	active: 3.98 µM
CCCc1cc(=O)[nH]c(SCC(=O)N2CCCc3ccccc32)n1	inconclusive: 31.6 µM [inhibitor, partial curve]
CCc1ccccc1-n1c(SCC(=O)Nc2ccc3c(c2)OCCO3)nc2[nH]ncc2c1=O	inconclusive: 56.2 µM [inhibitor, partial curve, poor fit]
CCCN(CC(=O)Nc1ccccc1C)C(=O)c1ccc(N2CCCCCC2)c([N+](=O)[O-])c1	inconclusive: 31.6 µM [inhibitor, full curve]
CC(=O)c1ccc(-n2nncc2-c2ccc([N+](=O)[O-])cc2)cc1	inconclusive: 50.1 µM [inhibitor, partial curve]
Cc1ccc2nc(-c3ccc(NC(=O)CNC4CC4)cc3)sc2c1	inconclusive: 79.4 µM [inhibitor, single point]
Cc1onc(-c2ccccc2)c1C(=O)Nc1nncs1	inconclusive: 10 µM [inhibitor, partial curve, poor fit]
O=C(CN1CCOCC1)Nc1ccc2c(c1)OCCO2	active: 31.6 µM
O=C1CCCCC1Sc1nnc(Cc2cccs2)n1CCc1ccccc1 (stereo not given)	active: 79.4 µM
COc1ccc([N+](=O)[O-])cc1N(CC(O)CN1CCOCC1)S(=O)(=O)c1ccccc1 (stereo not given)	inconclusive: 35.5 µM [inhibitor, single point]
COc1ccc(-c2[nH]c3ccccc3c2SCCNC(=O)c2cc(OC)c(OC)c(OC)c2)cc1	inconclusive: 25.1 µM [inhibitor, full curve, poor fit]
CCCc1sc(N)nc1-c1ccc(C)cc1	inconclusive: 79.4 µM [inhibitor, partial curve]
Cn1cccc1/C=C1\SC(=S)N(NC(=O)c2ccccc2O)C1=O	inconclusive: 31.6 µM [inhibitor, partial curve]
S=c1[nH]nc(-c2cccc(Cl)c2)n1/N=C/c1ccc(-c2ccccc2Br)o1	inactive
COc1ccc(Cl)cc1NC(=O)c1c(NCc2ccc(C)o2)sc2c1CCCCC2	inconclusive: 39.8 µM [inhibitor, partial curve]
CCn1c(CCNC(=O)c2ccccc2Cl)n[nH]c1=S	active: 39.8 µM
O=C(COC(=O)COc1ccccc1F)Nc1cccc(S(=O)(=O)N2CCCCC2)c1	inconclusive: 14.1 µM [inhibitor, full curve]
COc1cccc(CSc2nc3ccccc3c3nc(CCn4c(C)nc5ccccc54)nn23)c1	inactive
CCCn1c2ccccc2c2cnn(CC(=O)N(C)c3ccc(F)cc3)c(=O)c21	inactive
CCS(=O)(=O)N1CCN(CC(=O)NC2CCCCC2)CC1	inconclusive: 14.1 µM [inhibitor, single point]

SMILES	Potency
COC(=O)/C(C#N)=C/c1c(N2CCN(c3ccccc3)CC2)nc2ccccn2c1=O	inconclusive: 22.4 µM [inhibitor, full curve]
CC(C)C[C@H](CO)Nc1nc(Nc2cccc(Cl)c2)c2ncn(C(C)C)c2n1	inconclusive: 39.8 µM [inhibitor, partial curve]
O=C(Nc1ccccc1C(=O)NC(Cc1ccc(O)cc1)C(=O)O)c1ccccc1 (stereo not given)	inactive
O=C(CSc1ccccc1)N1CCc2c([nH]c3ccccc23)C1c1ccc(F)cc1 (stereo not given)	inconclusive: 31.6 µM [inhibitor, partial curve]
CCOC(=O)c1cnn(-c2ccc(C(=O)Nc3cc(OC)c(OC)c(OC)c3)cc2)c1N	inactive
O=C(c1ccccc1)N1CCN(c2ccc(NCc3ccc4c(c3)OCO4)cc2)CC1	active: 50.1 µM
COc1ccccc1C(=O)n1nc(-c2cccnc2)nc1N	inconclusive: 89.1 µM [inhibitor, single point]
COc1cc([N+](=O)[O-])cc(/C=N/NC(=O)c2cccnc2)c1O	active: 22.4 µM
Cc1cccc(NC(=S)NCc2ccccn2)c1	inconclusive: 79.4 µM [inhibitor, single point]
CCn1c(C(=O)NCCc2ccc(OC)c(OC)c2)cc2sc(Cl)cc21	inconclusive: 100 µM [inhibitor, partial curve]
COc1ccc(NC2c3ccccc3C(=O)N2Cc2ccc3c(c2)OCO3)cc1 (stereo not given)	active: 39.8 µM
CCOC(=O)C1CCCN(C(=O)CCn2nnnc2CN2CCOCC2)C1 (stereo not given)	inactive
CCOc1ccc(NC(=O)c2ccc(NC(=O)N3CCSc4ncccc43)cc2)cc1	inactive
CCOc1ccc(N2CC(=O)N/C2=N\c2nc(C)cc(C)n2)cc1	inconclusive: 22.4 µM [inhibitor, partial curve]
COc1ccc(C2CC(=O)c3cc(-c4nc(-c5cccc(Cl)c5)cs4)c(=O)[nH]c3C2)cc1OC (stereo not given)	inactive
c1ccc2nc3c(nc2c1)[nH]c1ccccc13	inactive
Cc1cccc(N2CCN(c3ncnc4c3nc3n4CCCCC3)CC2)c1C	inactive
Nc1nnc(CC(=O)N/N=C/c2cc([N+](=O)[O-])cc(Br)c2O)s1	active: 79.4 µM
CCCCOc1ccc(-c2nn(-c3ccccc3)cc2C2NC(=O)NC(C)=C2C(=O)OC)cc1 (stereo not given)	inconclusive: 89.1 µM [inhibitor, partial curve]
O=C1Nc2ccccc2C1=Nc1ccc(S(=O)(=O)Nc2nccs2)cc1	active: 56.2 µM
Cc1cccc(OCCCC(=O)Nc2nc3ccccc3[nH]2)c1	inactive
Cc1cc(C)c2sc(N(CCCN(C)C)C(=O)c3ccc(Br)s3)nc2c1	inconclusive: 44.7 µM [inhibitor, partial curve]
